Some of the results follow. Most values come without repeats; read them as rough.
What was measured:
Experiment in all cases: cell count relative to DMSO control; melanoma cells; higher = more viable cells
Conditions in all cases: library dose: standard library concentration; 72 h
G361 = tested on: G361
IPC-298 = tested on: IPC-298
IST-MEL1 = tested on: IST-MEL1
LB2518-MEL = tested on: LB2518-MEL
LOXIMVI = tested on: LOXIMVI
MEL-HO = tested on: MEL-HO
MZ2-MEL = tested on: MZ2-MEL
MeWo = tested on: MeWo
RPMI7951 = tested on: RPMI7951
RVH-421 = tested on: RVH-421
SkMel28 = tested on: SkMel28
SkMel2 = tested on: SkMel2
SkMel30 = tested on: SkMel30
SkMel5 = tested on: SkMel5
UACC257 = tested on: UACC257
UACC62 = tested on: UACC62
WM115 = tested on: WM115
WM1716 = tested on: WM1716
WM1745 = tested on: WM1745
WM3526 = tested on: WM3526
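Note: cells treated in 1,536-well plates, then fixed and DAPI-stained, with nuclei counted from automated high-throughput microscope images.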

## C[C@]1(O)C[C@@H](c2nc(-c3ccc4ccc(-c5ccccc5)nc4c3)c3c(N)nccn32)C1 + Cc1ccc(NC(=O)c2cccc(N(C)C)c2)cc1NC(=O)c1ccc(O)cc1 [ZM336372] (first compound 2 µM, partner dose 10 µM)
G361
  cell count: 91.4%
IPC-298
  cell count: 112%
IST-MEL1
  cell count: 88.6%
LB2518-MEL
  cell count: 103%
LOXIMVI
  cell count: 116%
MEL-HO
  cell count: 96.6%
MZ2-MEL
  cell count: 101%
MeWo
  cell count: 89.9%
RPMI7951
  cell count: 106%
RVH-421
  cell count: 92.6%
SkMel28
  cell count: 108%
SkMel2
  cell count: 100%
SkMel30
  cell count: 106%
SkMel5
  cell count: 112%
UACC257
  cell count: 77.1%
UACC62
  cell count: 77.8%
WM115
  cell count: 126%
WM1716
  cell count: 127%
WM1745
  cell count: 74.1%
WM3526
  cell count: 87.2%

## Cn1cnc2c(F)c(Nc3ccc(Br)cc3Cl)c(C(=O)NOCCO)cc21 [selumetinib] + CO[C@H]1C[C@@H]2CC[C@@H](C)[C@@](O)(O2)C(=O)C(=O)N2CCCC[C@H]2C(=O)O[C@H]([C@H](C)C[C@@H]2CC[C@@H](OCCO)[C@H](OC)C2)CC(=O)[C@H](C)/C=C(\C)[C@@H](O)[C@@H](OC)C(=O)[C@H](C)C[C@H](C)/C=C/C=C/C=C/1C [everolimus] (first compound 0.075 µM, partner dose 0.1 µM)
G361
  cell count: 50%
IPC-298
  cell count: 45.9%
IST-MEL1
  cell count: 72%
LB2518-MEL
  cell count: 43.2%
LOXIMVI
  cell count: 121%
MEL-HO
  cell count: 52.7%
MZ2-MEL
  cell count: 65.6%
MeWo
  cell count: 59.1%
RPMI7951
  cell count: 76.3%
RVH-421
  cell count: 62.2%
SkMel28
  cell count: 37.5%
SkMel2
  cell count: 39.6%
SkMel30
  cell count: 41.3%
SkMel5
  cell count: 54.8%
UACC257
  cell count: 83.7%
UACC62
  cell count: 52.4%
WM115
  cell count: 50.8%
WM1716
  cell count: 56.7%
WM1745
  cell count: 75.8%
WM3526
  cell count: 43.2%

## CCN(CC)CCNC(=O)c1c(C)[nH]c(/C=C2\C(=O)Nc3ccc(F)cc32)c1C [sunitinib] + O=C(O)c1ccc2c(c1)nc(Nc1cccc(Cl)c1)c1ccncc12 [CX4945] (first compound 2 µM, partner dose 2 µM)
G361
  cell count: 39.8%
IPC-298
  cell count: 58.8%
IST-MEL1
  cell count: 80.3%
LB2518-MEL
  cell count: 83.3%
LOXIMVI
  cell count: 88.9%
MEL-HO
  cell count: 57.9%
MZ2-MEL
  cell count: 102%
MeWo
  cell count: 67.9%
RPMI7951
  cell count: 60.7%
RVH-421
  cell count: 104%
SkMel28
  cell count: 48.2%
SkMel2
  cell count: 64.5%
SkMel30
  cell count: 63.7%
SkMel5
  cell count: 38.7%
UACC257
  cell count: 87.2%
UACC62
  cell count: 50.3%
WM115
  cell count: 63.6%
WM1716
  cell count: 98.6%
WM1745
  cell count: 50.1%
WM3526
  cell count: 51.6%

## COc1cc([C@@H]2c3cc4c(cc3[C@@H](O[C@@H]3O[C@@H]5CO[C@@H](C)O[C@H]5[C@H](O)[C@H]3O)[C@H]3COC(=O)[C@H]23)OCO4)cc(OC)c1O [etoposide] + CC(C)(C)c1cnc(CSc2cnc(NC(=O)C3CCNCC3)s2)o1 [SNS-032] (first compound 0.1 µM, partner dose 0.05 µM)
G361
  cell count: 92.8%
IPC-298
  cell count: 88.1%
IST-MEL1
  cell count: 74.4%
LB2518-MEL
  cell count: 80.8%
LOXIMVI
  cell count: 73.3%
MEL-HO
  cell count: 93.1%
MZ2-MEL
  cell count: 82%
MeWo
  cell count: 92.1%
RPMI7951
  cell count: 35.4%
RVH-421
  cell count: 84.9%
SkMel28
  cell count: 58.7%
SkMel2
  cell count: 45.7%
SkMel30
  cell count: 102%
SkMel5
  cell count: 82.4%
UACC257
  cell count: 106%
UACC62
  cell count: 62.5%
WM115
  cell count: 70%
WM1716
  cell count: 85.6%
WM1745
  cell count: 66.3%
WM3526
  cell count: 124%

## COc1cc([C@@H]2c3cc4c(cc3[C@@H](O[C@@H]3O[C@@H]5CO[C@@H](C)O[C@H]5[C@H](O)[C@H]3O)[C@H]3COC(=O)[C@H]23)OCO4)cc(OC)c1O [etoposide] + CC(=O)c1c(C)c2cnc(Nc3ccc(N4CCNCC4)cn3)nc2n(C2CCCC2)c1=O [palbociclib] (first compound 0.1 µM, partner dose 0.2 µM)
G361
  cell count: 63.1%
IPC-298
  cell count: 54.5%
IST-MEL1
  cell count: 66.1%
LB2518-MEL
  cell count: 57.2%
LOXIMVI
  cell count: 42.7%
MEL-HO
  cell count: 58.5%
MZ2-MEL
  cell count: 52%
MeWo
  cell count: 65.9%
RPMI7951
  cell count: 61.5%
RVH-421
  cell count: 52%
SkMel28
  cell count: 41%
SkMel2
  cell count: 47.4%
SkMel30
  cell count: 60.6%
SkMel5
  cell count: 59.8%
UACC257
  cell count: 49.9%
UACC62
  cell count: 51.3%
WM115
  cell count: 49.3%
WM1716
  cell count: 33.9%
WM1745
  cell count: 67.6%
WM3526
  cell count: 60.4%

## C[C@]1(O)C[C@@H](c2nc(-c3ccc4ccc(-c5ccccc5)nc4c3)c3c(N)nccn32)C1 + CN(c1ncccc1CNc1nc(Nc2ccc3c(c2)CC(=O)N3)ncc1C(F)(F)F)S(C)(=O)=O [PF562271] (first compound 2 µM, partner dose 0.4 µM)
G361
  cell count: 59.6%
IPC-298
  cell count: 76.5%
IST-MEL1
  cell count: 64.2%
LB2518-MEL
  cell count: 81.7%
LOXIMVI
  cell count: 64.3%
MEL-HO
  cell count: 84.1%
MZ2-MEL
  cell count: 62.3%
MeWo
  cell count: 68.9%
RPMI7951
  cell count: 44.1%
RVH-421
  cell count: 86.3%
SkMel28
  cell count: 83.6%
SkMel2
  cell count: 58.1%
SkMel30
  cell count: 78.9%
SkMel5
  cell count: 65.6%
UACC257
  cell count: 74.5%
UACC62
  cell count: 3.24%
WM115
  cell count: 62%
WM1716
  cell count: 72.8%
WM1745
  cell count: 42.1%
WM3526
  cell count: 115%

## C[C@]1(O)C[C@@H](c2nc(-c3ccc4ccc(-c5ccccc5)nc4c3)c3c(N)nccn32)C1 + CN(C)S(=O)(=O)c1ccc2c(c1)/C(=C/c1cc3c([nH]1)CCCC3)C(=O)N2 [SU6656] (first compound 2 µM, partner dose 2 µM)
G361
  cell count: 66.6%
IPC-298
  cell count: 77.4%
IST-MEL1
  cell count: 72.5%
LB2518-MEL
  cell count: 64.7%
LOXIMVI
  cell count: 103%
MEL-HO
  cell count: 72.7%
MZ2-MEL
  cell count: 87.5%
MeWo
  cell count: 66.3%
RPMI7951
  cell count: 36%
RVH-421
  cell count: 80.3%
SkMel28
  cell count: 43.6%
SkMel2
  cell count: 70%
SkMel30
  cell count: 63.6%
SkMel5
  cell count: 62.1%
UACC257
  cell count: 72.2%
UACC62
  cell count: 59.1%
WM115
  cell count: 52.6%
WM1716
  cell count: 53.9%
WM1745
  cell count: 35%
WM3526
  cell count: 53.3%
